In PubChem BioAssay (NCATS):
Inconclusive means that the source gave no clear call. Such entries were picked first, then a sample of the others. Potencies beside an inconclusive call are fits to weak or partial responses and may not hold up. Calls of active or inactive are those of the source. Calls come from the whole dose curve; as a rule, active = well fitted cell-killing curve with a large enough effect; inconclusive = small, poorly fitted or top-dose-only effect, or effect the other way; inactive = no such curve, though single readings can be large or run the other way.

Assays:
[1] = Viability qHTS for spleen associated tyrosine kinase inhibitor (SYKi) naive MV4-11 cells (AID 1963823); conditions: MV4-11 AML viability, CellTiter-Glo luminescence, 72 h; series mostly up to 45 µM; note: nearly all actives have a fitted effect of over 40% in size
Method in brief: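 qHTS, SYK inhibitor-naive MV4-11; 500 cells/well; 72 hr compound exposure, 37 C; CellTiter-Glo added, 10 min RT; luminescence read.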

[2] = Viability qHTS for spleen associated tyrosine kinase inhibitor (SYKi) drug resistant MV4-11 cells (AID 1963824); note: nearly all actives have a fitted effect of over 35% in size
Method in brief: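 SYK inhibitor-resistant MV4-11 AML cells, 500 per well, added to predispensed compounds and incubated 72 hr at 37 C, 5% CO2. Viability measured by CellTiter-Glo luminescence after 10 min at room temperature.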
Potency is the fitted concentration of half-maximal effect; tags give direction and shape of the fitted curve.

| SMILES | Potency [1] | Potency [2] |
| --- | --- | --- |
| CC1=C2C=C(CO)C(CO)CCC2(C)CCC1=O (centres undefined) | inactive | inactive |
| CC(=O)N[C@H]1[C@H]([C@H](O)[C@H](O)CO)OC(C(=O)O)=C[C@@H]1N=C(N)N | inconclusive: 0.0084 µM [rising, full curve, poor fit] | inconclusive: 0.0015 µM [rising, full curve] |
| COc1cc(F)c(C(C)C)cc1-c1ccc(C(F)(F)F)cc1CN1C(=O)OC(c2cc(C(F)(F)F)cc(C(F)(F)F)c2)C1C (centres undefined) | inconclusive: 1.16 µM [cytotoxic, partial curve, poor fit] | inconclusive: 0.366 µM [cytotoxic, full curve, poor fit] |
| O=C(c1ccc(C#Cc2cccc(F)c2)cn1)N1CC2CC2C1 (centres undefined) | inconclusive: 29.1 µM [cytotoxic, single point] | inconclusive: 29.1 µM [cytotoxic, single point] |
| Cc1nnc(-c2ccc(-c3ccc(C(=O)Nc4ccc(O)c(N5CCN(C)CC5)c4)cc3)c(C)c2)o1 | inactive | inconclusive: 14.6 µM [cytotoxic, single point] |
| c1ccc(Nc2nc3c(s2)CCCc2[nH]ncc2-3)nc1 | inconclusive: 9.2 µM [cytotoxic, partial curve] | active: 14.6 µM |
| CC(=O)O[C@H](C[C@@H](C)[C@H]1C(=O)[C@H](O)[C@@]2(C)[C@@H]3CCC4C(C)(C)[C@@H](O[C@@H]5OC[C@H](O)[C@H](O)[C@H]5O)CC[C@@]45C[C@@]35CC[C@]12C)[C@@H]1OC1(C)C (some centres undefined) | inactive | inconclusive: 5.44 µM [cytotoxic, single point] |
